This is one part of the list.

The subject of this test is T1, C. trachomatis L2/434/Bu expressing GFP (CTL2-GFP).
T1 construct: L2/434/Bu GFP intracellular growth in HeLa cells
Set-up: species or system HeLa; C. trachomatis total inclusion area by high-content imaging, normalised to DMSO. The conditions noted are these: total inclusion area; 28.5 h, 10 µM; inhibitor. An outline of the steps: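 Imaging read-out: GFP inclusions and Hoechst nuclei captured by high-content imaging after fixation. Inclusion area/number = chlamydial growth; nuclei count = host cell viability. MIC calculated per earlier method.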
Turning to `CCN(CC)CCn1c(NC(=O)CCC2CCNC2)nc2ccccc21` (centres unmarked) [CBK304693], the “% of control remaining” value is 84.7737. In the case of `Cc1nn(C)cc1C(=O)N1CCC(c2cc3c(C)cccc3cn2)CC1` [CBK282231] it was 114.842; in that of `Cc1cc(NC(=O)N2CCN(CCNC(=O)C3CCCC3)CC2)no1` [CBK305064], 83.5451; in that of `COc1ccc(C(=O)N2CCN(Cc3ccc(SC)cc3)CC2)cc1` [CBK058613], 53.9136.

`COc1ccc(C)cc1NC(=O)C1CC(=O)Nc2ncnn21` (centres unmarked) [CBK270274]: the “% of control remaining” value is 86.1947. In the case of `Oc1ccc(-c2n[nH]c(=S)n2-c2ccccc2)cc1` [CBK014887] it was 59.356; in that of `CC1=C[C@@H](CN2CCC(O)CC2)[C@H](C(C)C)C[C@H]1Cc1nnc(-c2ccccc2)o1` [CBK289220], 108.054; in that of `CCC(NC(=O)c1ccc(C#CC2(O)CCCCC2)cc1)C(=O)O` (centres unmarked) [CBK287160], 95.9626. Under `c1ccc(Nc2[nH]nnc2-c2ccccc2)cc1` [CBK261015] stands 74.8371; under `N#C/C(=C\c1ccc(OCC(=O)c2ccc(F)cc2)cc1)c1nc(-c2cc3ccccc3oc2=O)cs1` [CBK266769], 105.749; under `O=S(=O)(Nc1nnc(Cc2ccc(Cl)cc2)s1)c1ccc(Cl)cc1` [CBK200048], 100.313. Under `O=C1N(c2cccc(Cl)c2)Cc2nc(=O)[nH]n21` [CBK288430] stands 92.8344; under `CN1CC(C(=O)N2CCCC(c3cc4cccnc4[nH]3)C2)CC1=O` (centres unmarked) [CBK284958], 122.209; under `Cc1cc2cc3c(nc2cc1C)OCCNC3` [CBK281939], 93.4997. Consider `CCc1nc2ccc(C(=O)N3CCCCC3)cn2c1N(C)CCC(C)C` [CBK146065], for which the “% of control remaining” value was 96.1701. Under `CN1CCN(c2cc(N)nc(N)n2)CC1` [CBK266102] stands 142.061; under `O=C(CSCc1c(Cl)cccc1Cl)Nc1ccc(-c2nnc(-c3ccccc3)o2)cc1` [CBK267817], 97.8966; under `CC1CCCN(CC(O)COCc2ccc3c(c2)OCO3)C1` (centres unmarked) [CBK262830C], 78.8913.

`CC(C)c1ccc(CNC(=O)c2ccc3[nH]ccc3c2)cc1` [CBK161754]: the “% of control remaining” value was 99.5469. In the case of `O=C(O)COc1ccccc1/C=N\N1CCN(Cc2ccccc2Cl)CC1` [CBK020891] it was 91.9448; in that of `CCOC(=O)c1ccc(NS(=O)(=O)c2cc(Cl)ccc2Cl)cc1` [CBK077746], 83.5055; in that of `CCOC(=O)C1CCN(Cc2cccs2)CC1` [CBK026999], 71.0266. On to `CC(C)(C)N(Cc1ccccc1)C(=O)Cn1nc(C(=O)O)c2ccccc2c1=O` [CBK297498], for which the “% of control remaining” value was 73.2045.

In the case of `COc1ccccc1C/C(N)=N/OC(=O)COc1cccc2ccccc12` [CBK263012], the “% of control remaining” value came to 105.157.

For the compound `CN1CCN(C(=O)c2ccc(-c3cccc(C(=O)NCCO)c3)nc2N(C)C)CC1` [CBK076581], the “% of control remaining” value is on record as 102.599. In the case of `O=C1COc2ccccc2CCCC[C@@H]2CN(C(=O)CN3C(=O)CNC3=O)CC[C@H]2N1` [CBK292047] it was 101.002; in that of `COc1ccc(-n2c(SCCc3ccccc3)nnc2-c2ccncc2)cc1` [CBK265618], 114.801; in that of `c1coc(C2N3CCC4(CC3)c3[nH]c5ccccc5c3CCN24)c1` (centres unmarked) [CBK282862], 87.573. Under `COc1cc(NC(=S)NCCN2CCOCC2)c(OC)cc1Cl` [CBK265888] stands 92.2278; under `N#Cc1ccc(C(=O)NCc2ccc(OC3CCNCC3)cc2)cc1` [CBK036358T], 104.152; under `CC(C)[C@H](CO)Nc1nccnc1-c1ccncc1` [CBK089030], 66.5835. Under `Cc1cc(Nc2ccc(I)cc2)n2ncnc2n1` [CBK027364] stands 32.0702; under `Cc1cccc(=O)n1CCCn1cc(-c2ncc[nH]2)nn1` [CBK307401], 63.4882. `O=C(NCc1csc(-c2ccccc2)n1)C(F)(F)F` [CBK092340]: the “% of control remaining” value was determined as 99.0557.

As to `Cc1nc2cc(OCc3nc(C(=O)NC4CCNC4=O)co3)ccc2s1` (centres unmarked) [CBK307298], the “% of control remaining” value is listed as 28.0867. For `COc1cc(CCN2CCN(C(C)C)CC2)cc(OC)c1OC` [CBK028881C], the “% of control remaining” value came out at 54.2114. Turning to `O=c1[nH]c2ncc(-c3ccco3)nc2n1Cc1ccc(F)c(Cl)c1` [CBK064393], the “% of control remaining” value amounted to 74.6113. In the case of `O=C(NC1Cc2ccccc2C1)c1ccc2ncccc2c1` [CBK200354] it was 97.0208. As to `CC(=O)Nc1ccc(-c2ccc(=O)n3c2[C@@H]2C[C@@H](CN(C4CCOCC4)C2)C3)cc1` [CBK289201], the “% of control remaining” value is given as 99.1355. Under `CCc1nc2ccc(C(=O)N(C)CCN(C)C)cn2c1N(CC)CCOC` [CBK146018] stands 101.445; under `CCCCN1C(=O)N(c2nnc(C(C)(C)C)s2)C(=O)C1c1ccc(Cl)c(Cl)c1` (centres unmarked) [CBK085921], 82.1029. In the case of `Cc1ccc(S(=O)(=O)CC(=O)N2CCCC3(CCN(Cc4ccccc4)C3)C2)cc1` (centres unmarked) [CBK137098T] it was 123.942; in that of `O=c1[nH]c(=O)c2c3c(sc2[nH]1)CCCC3` [CBK027724], 29.5527; in that of `CCN(Cc1c[nH]nc1-c1ccc(OC)cc1F)CC1CCCO1` (centres unmarked) [CBK307350], 72.7088. Under `O=C1CC(Sc2ccccc2)C(=O)N1c1ccc(Cc2ccc(N3C(=O)CC(Sc4ccccc4)C3=O)cc2)cc1` (centres unmarked) [CBK263797] stands 93.5226; under `CCOC(=O)c1sc2nc(C)ccc2c1N` [CBK115377], 88.4216. Consider `Cc1cc(Br)ccc1S(=O)(=O)N(C)c1ccc(N2CCNCC2)c2ccccc12` [CBK016170C], for which the “% of control remaining” value came out at 7.348. `COc1cccc(Oc2nccnc2/C=C/c2ccccc2)c1` [CBK106877]: the “% of control remaining” value was 93.2992. Regarding `COc1ccc(C)cc1C(O)CN1CCOC(c2ccc(F)cc2)C1` (centres unmarked) [CBK298264], the “% of control remaining” value is reported as 106.091. In the case of `CC(C)C1c2cccn2CCN1C(=O)c1cc(-c2ccccn2)n[nH]1` (centres unmarked) [CBK283223] it was 114.09. Under `Fc1ccc(CCNC(=S)NC2CCCC2)cc1` [CBK266175] stands 76.2427; under `CCOC(=O)c1sc(NC(=O)Nc2cccc(Cl)c2)c(C(N)=O)c1C` [CBK262658], 91.3282; under `Cc1cccc(-c2nccnc2C2CCCN(C(=O)COc3ccc(F)cc3)C2)c1` (centres unmarked) [CBK286241], 99.6718. Under `O=S(=O)(Nc1nccnc1-c1cccs1)C1CC1` [CBK050764] stands 137.484; under `COc1ccccc1Cc1noc(COc2cccc(C)c2C)n1` [CBK265521], 64.2233; under `O=C(O)COc1cccc(NS(=O)(=O)c2ccc(Br)cc2)c1` [CBK286911], 86.0045. As for `Cc1ccc(S(=O)(=O)N(CC(=O)Nc2ccc(Cl)cc2C)c2cccc(Cl)c2C)cc1` [CBK264021], the “% of control remaining” value is reported as 102.773. In the case of `CC(C)CC(C(=O)O)N1C(=O)/C(=C2/C(=O)Nc3ccc(Br)cc32)SC1=S` (centres unmarked) [CBK261610] it was 97.5483; in that of `CN(C(=O)c1ccco1)c1nc2c(s1)CCc1c-2cnn1C` [CBK281928], 57.3061.

Consider `CC(=O)Nc1cccc(-n2nnnc2SC2CCCCC2=O)c1` (centres unmarked) [CBK304600], for which the “% of control remaining” value came out at 20.591. Under `Cc1nn(-c2ccc(F)cc2)c2[nH]c(=O)c(CNC(C)C)cc12` [CBK283119] stands 78.0834; under `COc1ccc2c(c1)sc1ncc(C#N)n12` [CBK016716], 80.1299; under `COc1cc(/C=C2/SC(=S)N(CC(=O)O)C2=O)cc(Br)c1OCc1ccccn1` [CBK265598], 92.8376. Under `COc1ccc(Br)cc1C(=O)NC(=S)Nc1cc(Cl)c(O)c(Cl)c1` [CBK265979] stands 78.8413; under `CC(C)C(NS(=O)(=O)c1ccc(Oc2ccccc2Cl)cc1)C(=O)O` (centres unmarked) [CBK267195], 120.441. Under `COC(=O)CCc1ccc(S(=O)(=O)N2CCCN(Cc3ccc(Cl)c(C(F)(F)F)c3)CC2)cc1` [CBK062995] stands 37.3616. As to `O=C(O)c1ccc(C(=O)O)c2c(-c3ccc(C(=O)O)c4c(C(=O)O)ccc(C(=O)O)c34)ccc(C(=O)O)c12` [CBK261267], the “% of control remaining” value was 98.0305. Under `Cn1c(-c2ccccc2)cnc1NC(=O)C1CCN(S(=O)(=O)c2ccc(F)cc2)C1` (centres unmarked) [CBK285709] stands 91.3434.

On to `CCO[C@H]1CN(C)C[C@@H]1NC(=O)c1cccc2c1NCCC2` [CBK307269], for which the “% of control remaining” value worked out at 68.5108.

With `Cc1cccc(OCC(=O)Nc2ncccc2OCCCC#N)c1` [CBK305918], the “% of control remaining” value was 72.0294. For `COc1ccc(-c2cc(C(F)(F)F)nc(SCC(=O)Nc3cccnc3)n2)cc1OC` [CBK266148], the “% of control remaining” value is 116.469. Under `COc1cccc(OCCOc2nsnc2N2CCNCC2)c1` [CBK200007] stands 95.0775; under `Fc1ccc(CNc2cncc(-c3cc4ccccc4o3)n2)cc1` [CBK066005], 112.632.

In the case of `Cc1cc(C)cc(N(CC(=O)Nc2ccc(C)c(Cl)c2)S(=O)(=O)c2ccccc2)c1` [CBK264109], the “% of control remaining” value was 79.6543. With `COc1ccc(-c2ncc(OCC3CCCN3C)nc2N)c(OC)c1` (centres unmarked) [CBK145091], the “% of control remaining” value was 85.4259. In the case of `CCOC(=O)CCNC(C)C1COc2ccccc2O1` (centres unmarked) [CBK074284G] it was 94.2256; in that of `Cc1ccccc1-n1ccn(S(=O)(=O)c2ccccc2)c1=O` [CBK106567], 109.78; in that of `NS(=O)(=O)c1ccc(NCc2cc(Cl)ccc2OCc2ccc(F)cc2)cc1` [CBK268196], 102.911.

In the case of `CC(=O)NCCSc1nccnc1NC(C)C` [CBK105289], the “% of control remaining” value amounted to 76.651. In the case of `CC(C)(O)C#Cc1ccc(C(=O)N2CCN(C/C=C/c3ccccc3)CC2)s1` [CBK267007] it was 90.9082.

The record behind these values is article PMC12040169 (PLOS Biology, 2025).
